Reference: the supplement of paper PMC12632987
In all, about 2,300 sequences were measured (“median log2 fold change of GCK-ALFA target abundance (FLAG IP / Myc IP barcode read proportion)”: median about 0.095, lowest 2% from about -0.47 on). The list shows a part of the results.

B1: LC3A_free_39_2236 (protein)
chain: SEEEIEKLIKEIAEEGGVDYNYVKEKMEEIQKIGGLSEEQMLELVKELLKAVKEGADAKEILDEILKLTKELKEKGLSPEEILEELLEKIRDYRNLVPLD
B2: LC3A_3_1577 (protein)
chain: SEARIAEAEARLRAAGLSEEVIARAREVLEALLARGDEETAELVVEGLLELADAPTELLLAALDEVLAVARDESLTPEERLARVREILATAKAEAEIIEL
B3: LC3A_45_1999 (protein)
chain: MWRITVDLLGPKEKVEKAVKLILEKVEEFSKETGIKIEVDEEKAKKSFEASKDEEEVFVEIEITIDGNKEDADALVQRLDEVLEEVGPGLASIISVEEIE
B4: LC3A_28_875 (protein)
chain: SAVDARLAAVRAEGEAQAAEGEDIVLEVTVDASMSLAEAVELMRRVLALARELVAETGLKVTIVVDFDGSQETLDALLALADAAEAEDPKITVIFAISEE
B5: LC3A_free_0_2102 (protein)
chain: MLVVGEVLAVSREPVSEEKEKEFEEKVKELAKEVSEKTGAEVKVEFKRIDGHLVVTITIKAEGVSIEEMDEIVNEVADRVEEIAKELGIEVTTYVSIEEV
B6: LC3A_23_598 (protein)
chain: MYKVELIVSLIGEEEEIKKKAEKLKKEIEKILEKYKDKIISYKINVSFEKLEDGKTYLEIEVEIIIEDDEEVAEEIAEELTDAADKILPDGVISVEVEKL
B7: LC3A_28_745 (protein)
chain: MTIEEQIAEAIEEAKKAAEKGESTVIELTVPGTANEADIDKLIEGMEKIAEILKDVKDQAIIINIDGKLDPEYQKRIGEKAEEIEKKYPNVTVIIALDEE
B8: LC3A_28_1250 (protein)
chain: SAVEEQIAAARAEVEAAVAEGKEALVTLTVTKESDEEDIEKIIEAMYEIAELGKTLPSLTIIVDVERGVKQEHIDKLIDAGEEIEEKYPNVTVIIALEEE
B9: LC3A_6_2059 (protein)
chain: KTVTVVVDILLKEEKLEEGKAKAEEAFKKAVEKLKAKAKELGKKLLNAKLEVGEDGLHLTITFEAEYHPELEKLMSELADEIVEELEPYALASMISIEVN
B10: LC3A_3_1847 (protein)
chain: MEKIKEEALKLLEELGRSEEVKKAVEELLEALEERGYLKAAEKLLEKLKELKDVSDEILLAMLEEILRAVTEENLSEEETIKLIEEEAETAKNENEIEEL
B11: LC3A_147_428 (protein)
chain: VRAEVDIDILVKNAEEEVKEAFKKLEEELKKKGYKVELKIEEEKLENGETYIKVRVTVEAETREEAEEAANLIIDKVEELEEKLKDKIKGYIISVEISEL
B12: LC3A_free_46_2316 (protein)
chain: YIGNISVDIYGVDKEKAEELVKEIEEKIKEIAKKYGLEIEIKVEIEENEDGTTLVFIDITLKGEDKEKLEEAVNEIIKEIDEIAEKYGATAVISYEIEEE
B13: LC3A_free_26_2140 (protein)
chain: SDFVDLGLLDRAADLAEEIAKLLKELGEKYEKLAKKAEEIKKLILTGRLEDLEEALKLAEELIKELEKLKKEDPEKIEKLIKLAKELKELLKEQIEIIKS
B14: LC3A_28_916 (protein)
chain: SAVEEQTKKAIAEAKEAAAKGEPAVVTLNIDHEDVEEAAKLAKEALDKLAEVAKKLKGVTIVVDVPAHNLDAVTAEADKKQEELDKVNPSNHIIVALEEP
B15: LC3A_3_1563 (protein)
chain: MEELIKKLLEELKKAGASEEVLEAVRKAAEALKERGYEEALKVFAEEMRELLHLPDEYLLEFAEEVLEYVETEDLDEEEVIEKIKEIARTVRNDAEIIEL
B16: LC3A_45_2003 (protein)
chain: MWEITVDLLGKPEVVAKAVAAIKAAAAAFSKESGLKVTVDTSEAEAALAAEQDAEEVFATVKIYVDGDQEDADALIQRLEKVEEEVGPELSSIISKEEVP
B17: LC3A_127_191 (protein)
chain: NLLEEAERGLREAQELLRKLQRGEISLEEAEKRAEELLKRLERIAEELADNEVLKEMVEDARELLERAKKAPPEEQKPLLEELFSELALAFALAAVKLEE
B18: LC3A_59_2025 (protein)
chain: SAEIKALVDAAIAAKDDIDAMAKTILEGLEAVKDDPEKLKELKELLVEGLVKAGLLSEELAKEMVDDIVEAFEKLKNREDQLKAIKEIITTYLNEEEIEE
B19: LC3A_3_1640 (protein)
chain: MEEKVEEAAKRLKEAGHSEEVIEAFRETAELLMKRGYEEALKTLIEEMEKLIDLPDEILLDFLNDVKNYVLTHDDNEEEVIKFIKEEARIARNESEIIEL
B20: LC3A_28_721 (protein)
chain: GSLEENLEKALKEAKEAAEKGEEVVIEIKVPGDATEEDIEKVMKALEEIAEITKDLKSTAIIIDVDGGVKQEHIDKLADKAEEIEKKYPNVTVIIALDEE
B21: LC3A_3_1903 (protein)
chain: MEKLREELLKALKEAGASEETIEAAKEALDLIASRGLEKVAEEFVKAVKELLKESVEKAEEFIKRMLEFVKSFKGSDEEFEKALLEEIRTLKNEALIEEL
B22: LC3A_free_0_2114 (protein)
chain: MTTVVEVVVISKEPVSEEKVEKLEEFARELAEEISEKYGAETEVEVAEVDGRVVFTLTIKKEGMSIDEALEIADEVSDRLEEKAKELGVEVTIYESVYEE
B23: LC3A_132_321 (protein)
chain: SEKLYEELKEKITELLEEAEKNIDNLEKVEELVKEIRELAKEAKEKLSPEQVAELFDEAAEKADEVSLKALEAGKEDVSLLLDGLAVELAAESIRAEEEI
B24: LC3A_28_965 (protein)
chain: SALEEQLEKVLEEAKKAAKEGKPKVFVIEVPGDADEEDIEKVIKTIKEIAELLKDVKGSAIIVEVDAGVKQEHIDKLADTLEEIEKKYPNITAILALDED
B25: LC3A_3_1782 (protein)
chain: MEEKVEELLKELEEAGKSEETIEAVREALELLIERGYEEALETFVEETRELLDLPDEILLDFALEVLNLIKNEDLSEEELTKRIKELARLAKLEGEIEEL
B26: LC3A_28_803 (protein)
chain: SKTRESADAALAEARAQIAAGEEVFVTITIEEDATEEDVRYVAETIREIARLAKEAGIPRVYVTVDSPANEEHITIIDETEEELQAEGLPVTVVIAIEDE
B27: LC3A_28_660 (protein)
chain: SATREAADAAIAAARAAAARGEPAVITLTVTGDATPEDIDYVLAALEEIAAILAPIPGSAIVIDLEAGVDPEHRQRIIDKAEELEKRYPNVTVIIAEEEE
B28: LC3A_free_26_2167 (protein)
chain: DDFLDIAALDKALENLEEALKLAEKNKNVSEELKALLKKALENAKKGTLESFEQAIKDLEAAIKLVKENKKIPEEDKEKLLKLLEEALANLKENAEILKS
B29: LC3A_28_689 (protein)
chain: NYIEELKKKAEEILEEAAAKGEEAYIEIDFERPITPEEVEEIMDKLEEYIKKYKLKKVNIVINILSENQSQETIDTIMDKAEELEKRIPNVTVIIALPEN

These binders were tested against MAP1LC3A, Q9H492 (assay: median log2 fold change of GCK-ALFA target abundance (FLAG IP / Myc IP barcode read proportion) (log2 ratio); each designed protein is fused to an ALFA-tag nanobody in HEK293 cells to bring the named protein to FLAG-tagged glucokinase (GCK); Myc marks an untargeted standard; higher = target protein stabilised (more abundant)). Settings: target protein: 3xFLAG-MCP-GCK-ALFA reporter; HEK293 landing pad (RPLP).
Procedure, shortened: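 Sequencing of reverse-transcribed, amplified circular RNA barcodes from anti-FLAG and anti-Myc immunoprecipitates provided the readout for an ALFA-nanobody-fused binder library recombined into HEK293 landing-pad cells. Those cells were induced with 2 μg mL^−1 doxycycline, transfected with a plasmid expressing a FLAG-tagged target and a Myc-tagged standard, and lysed after 48 h. Target abundance is the per-binder median log2 ratio of FLAG to Myc barcode read proportions. Only barcodes at a proportion of ≥10^−7 in both replicates and binders with ≥3 barcodes per replicate were kept, with a 10^−6 pseudocount added before the two replicates were pooled.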

Binder	median log2 fold change
B1	0.299
B2	0.268
B3	0.113
B4	-0.064
B5	-0.0817
B6	-0.0746
B7	0.295
B8	0.155
B9	0.164
B10	0.12
B11	0.295
B12	-0.0193
B13	0.381
B14	0.256
B15	0.0727
B16	0.258
B17	0.011
B18	0.394
B19	0.236
B20	0.113
B21	0.406
B22	-0.128
B23	0.224
B24	0.214
B25	0.226
B26	-0.0277
B27	0.104
B28	0.341
B29	-0.0908
